# Screen size: about 2,700 compounds; about 160 (5.9%) showed an effect of 50% or more. The list shows a part of the results.
# Biological target: Nonstructural protein 3 (Zika virus) (UniProt A0A024AXB9)
# [1] = PRVABC59, Concentration 50.0 uM, Number of replicates 1.0
# [2] = PRVABC59, Concentration 15.0 uM, Number of replicates 1.0
# UniProt A0A024AXB9, sequence (A0A024AXB9 as listed by the source): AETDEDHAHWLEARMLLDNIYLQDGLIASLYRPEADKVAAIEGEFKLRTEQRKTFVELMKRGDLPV
structure (smiles),measurement,setting,value
Cc1[nH]nc2ccc(C(=O)NC3(C)CN(C(=O)c4cnc(N)s4)C3)c(Cl)c12,inhibition,"PRVABC59, Concentration 49.5 uM, Number of replicates 2.0, Standard deviation 2.21182016402466 %",0.035%
same,inhibition,"PRVABC59, Concentration 99.01 uM, Number of replicates 2.0, Standard deviation 2.523819796559285 %",2.83%
same,inhibition,"PRVABC59, Concentration 198.0 uM, Number of replicates 2.0, Standard deviation 5.711384853620139 %",8.57%
O=S(=O)(c1ccc(Oc2ccccc2Cl)cc1)N1CCc2[nH]c3ccc(Cl)cc3c2C1,inhibition,"PRVABC59, Concentration 49.5 uM, Number of replicates 2.0, Standard deviation 2.489781748820796 %",4.51%
same,inhibition,"PRVABC59, Concentration 99.01 uM, Number of replicates 2.0, Standard deviation 1.8608073011659256 %",6.8%
same,inhibition,"PRVABC59, Concentration 198.0 uM, Number of replicates 2.0, Standard deviation 2.526780444079781 %",11.2%
Cc1cc(CO)c2cccc(Cc3ccccc3C(=O)Nc3cccc(C(N)=O)c3)c2n1,inhibition,"PRVABC59, Concentration 49.95 uM, Number of replicates 2.0, Standard deviation 0.5610502494199251 %",-2.71%
same,inhibition,"PRVABC59, Concentration 99.9 uM, Number of replicates 2.0, Standard deviation 0.1363299663609753 %",0.693%
CCCCN(Cc1ccc(F)cc1)C(=O)C1CCN(c2ccc(C=O)cc2)CC1,inhibition,[1],28.4%
O=Cc1ccc(N2CCC(C(=O)Nc3ccc(Br)c(Cl)c3Cl)CC2)cc1,inhibition,[1],20.9%
O=C(c1cc(Cl)ccc1NS(=O)(=O)c1ccc(Oc2ccccc2Cl)cc1)N1CCC[C@H](c2nc3ccccc3o2)C1,inhibition,[2],14.6%
Cc1[nH]c(=O)c(NC(=O)c2cc(Cl)ccc2NS(=O)(=O)c2ccc(Oc3ccccc3Cl)cc2)cc1Br,inhibition,[2],25.9%
Cc1ccc(CN(CCN(C)C)C(=O)C2CCN(c3ccc(C=O)cc3)CC2)s1,inhibition,[1],25.1%
Cc1cc(CO)c2cccc(Cc3ccccc3NC(=O)[C@@H](N)CC(N)=O)c2n1,inhibition,"PRVABC59, Concentration 49.95 uM, Number of replicates 2.0, Standard deviation 1.5014501209453077 %",18.1%
same,inhibition,"PRVABC59, Concentration 99.9 uM, Number of replicates 2.0, Standard deviation 0.5242366631195996 %",40.6%
O=Cc1ccc(N2CCC(C(=O)N[C@@H](CO)Cc3ccccc3)CC2)cc1,inhibition,[1],25.7%
Cn1cc(CNC(=O)c2ccccc2CN)cn1,inhibition,"PRVABC59, Concentration 49.5 uM, Number of replicates 2.0, Standard deviation 1.6446243983296642 %",-2.74%
same,inhibition,"PRVABC59, Concentration 99.01 uM, Number of replicates 2.0, Standard deviation 1.7345169670013365 %",-2.88%
same,inhibition,"PRVABC59, Concentration 198.0 uM, Number of replicates 2.0, Standard deviation 2.800969211584616 %",-3.41%
O=C(N[C@@H](c1ccccc1)c1ccc(Br)cc1)c1cc(Cl)ccc1NS(=O)(=O)c1ccc(Oc2ccccc2Cl)cc1,inhibition,[2],8.89%
O=C(Cc1c[nH]c2cnccc12)N1CC[C@H](c2c[nH]c3ccccc23)C1,inhibition,"PRVABC59, Concentration 49.5 uM, Number of replicates 2.0, Standard deviation 5.539795761025617 %",-0.574%
same,inhibition,"PRVABC59, Concentration 99.01 uM, Number of replicates 2.0, Standard deviation 4.134550795134549 %",4.72%
same,inhibition,"PRVABC59, Concentration 198.0 uM, Number of replicates 2.0, Standard deviation 2.9999169193656203 %",12%
CC(=O)Nc1ccc(C(=O)Nc2ccccc2Cc2cccc3c(CO)cc(C)nc23)cn1,inhibition,"PRVABC59, Concentration 49.95 uM, Number of replicates 2.0, Standard deviation 1.3996571367154935 %",0.389%
same,inhibition,"PRVABC59, Concentration 99.9 uM, Number of replicates 2.0, Standard deviation 1.6236024775230975 %",4.89%
O=C(c1cc(Cl)ccc1NS(=O)(=O)c1ccc(Oc2ccccc2Cl)cc1)N(Cc1ccccc1)[C@@H](CO)c1ccccc1,inhibition,[2],25.2%
C[C@@H](c1cccc2ccccc12)N(C)C(=O)c1cc(Cl)ccc1NS(=O)(=O)c1ccc(Oc2ccccc2Cl)cc1,inhibition,[2],26.3%
CN1CCN2CCN(C(=O)C3CCN(c4ccc(C=O)cc4)CC3)C[C@H]2C1,inhibition,[1],22.9%
O=Cc1ccc(N2CCC(C(=O)Nc3cc(F)c(F)cc3Br)CC2)cc1,inhibition,[1],21.8%
Cc1cc(CO)c2cccc(Cc3ccccc3NC(=O)[C@@H]3CC(=O)CCN3)c2n1,inhibition,"PRVABC59, Concentration 49.95 uM, Number of replicates 2.0, Standard deviation 2.0918511827871282 %",2.78%
same,inhibition,"PRVABC59, Concentration 99.9 uM, Number of replicates 2.0, Standard deviation 0.8805117286023129 %",13.2%
O=Cc1ccc(N2CCC(C(=O)Nc3ccccc3)CC2)cc1,inhibition,[1],15.9%
Cc1cc(CO)c2cccc(Cc3cccc(NC(=O)[C@@H]4CCCC[C@H]4C(=O)O)c3)c2n1,inhibition,"PRVABC59, Concentration 49.95 uM, Number of replicates 2.0, Standard deviation 2.8502108076927426 %",-0.349%
same,inhibition,"PRVABC59, Concentration 99.9 uM, Number of replicates 2.0, Standard deviation 0.9670358368472974 %",2.6%
O=C(c1cc(Cl)ccc1NS(=O)(=O)c1ccc(Oc2ccccc2Cl)cc1)N1CCCCC[C@H]1c1ccco1,inhibition,[2],20.1%
O=Cc1ccc(N2CCC(C(=O)NC3CCN(C(=O)NC4CCCCC4)CC3)CC2)cc1,inhibition,[1],26.4%
O=C(O)c1cccc(NC(=O)c2ccc(Br)cc2)c1,inhibition,"PRVABC59, Concentration 49.5 uM, Number of replicates 2.0, Standard deviation 2.505145118039987 %",-0.68%
same,inhibition,"PRVABC59, Concentration 99.01 uM, Number of replicates 2.0, Standard deviation 2.5632594265497786 %",0.859%
same,inhibition,"PRVABC59, Concentration 198.0 uM, Number of replicates 2.0, Standard deviation 2.4906164250087053 %",4.24%
O=C(NCCc1ncc[nH]1)c1ccn([C@H]2CCCNC2)n1,inhibition,"PRVABC59, Concentration 49.5 uM, Number of replicates 2.0, Standard deviation 2.6538722637890775 %",-1.72%
same,inhibition,"PRVABC59, Concentration 99.01 uM, Number of replicates 2.0, Standard deviation 2.837743348434735 %",-2.6%
same,inhibition,"PRVABC59, Concentration 198.0 uM, Number of replicates 2.0, Standard deviation 3.5466682603723454 %",-3.41%
Cc1nn(Cc2ccccc2OC(F)F)cc1C1CCNCC1,inhibition,"PRVABC59, Concentration 49.5 uM, Number of replicates 2.0, Standard deviation 0.16570549790952246 %",-0.579%
same,inhibition,"PRVABC59, Concentration 99.01 uM, Number of replicates 2.0, Standard deviation 0.11392259435015849 %",3.22%
same,inhibition,"PRVABC59, Concentration 198.0 uM, Number of replicates 2.0, Standard deviation 0.14085004727637462 %",8.61%
C[C@@H](CNC(=O)C1CCN(c2ccc(C=O)cc2)CC1)N(C)c1ccccc1,inhibition,[1],27.6%
O=C(Nc1ccc(I)cc1)c1cc(Cl)ccc1NS(=O)(=O)c1ccc(Oc2ccccc2Cl)cc1,inhibition,[2],58.1%
O=Cc1ccc(N2CCC(C(=O)NC34CC5CC(CC(C5)C3)C4)CC2)cc1,inhibition,[1],24.4%
CC(C)(CO)NC(=O)c1cc(Cl)cc(NC(=O)c2cc(C(N)=O)[nH]n2)c1,inhibition,"PRVABC59, Concentration 49.5 uM, Number of replicates 2.0, Standard deviation 1.4378426872285457 %",-2.73%
same,inhibition,"PRVABC59, Concentration 99.01 uM, Number of replicates 2.0, Standard deviation 0.7178957000557602 %",-2.45%
same,inhibition,"PRVABC59, Concentration 198.0 uM, Number of replicates 2.0, Standard deviation 2.7115945855342938 %",-2.1%
Cc1cn(-c2cc(NC(=O)c3cc(Cl)ccc3NS(=O)(=O)c3ccc(Oc4ccccc4Cl)cc3)cc(C(F)(F)F)c2)cn1,inhibition,[2],26.2%
O=Cc1ccc(N2CCC(C(=O)Nc3ccnc(Br)c3)CC2)cc1,inhibition,[1],20.2%
Cc1cc(CO)c2cccc(Cc3ccccc3NC(=O)Cc3csc(Cc4ccccc4)n3)c2n1,inhibition,"PRVABC59, Concentration 99.9 uM, Number of replicates 2.0, Standard deviation 1.236787932049936 %",0.014%
CC(=O)N1CCC(N(C)C(=O)C2CCN(c3ccc(C=O)cc3)CC2)CC1,inhibition,[1],23.8%
Cc1nc(Br)ccc1NC(=O)C1CCN(c2ccc(C=O)cc2)CC1,inhibition,[1],23.2%
O=C(Nc1ccc2ccccc2c1O)c1cc(Cl)ccc1NS(=O)(=O)c1ccc(Oc2ccccc2Cl)cc1,inhibition,[2],14%
COC(=O)c1ccc(F)c(Cn2cc(C3CCNCC3)c(C)n2)c1,inhibition,"PRVABC59, Concentration 49.5 uM, Number of replicates 2.0, Standard deviation 1.8234550992150553 %",1.56%
same,inhibition,"PRVABC59, Concentration 99.01 uM, Number of replicates 2.0, Standard deviation 0.947622366220452 %",0.074%
same,inhibition,"PRVABC59, Concentration 198.0 uM, Number of replicates 2.0, Standard deviation 0.08409628118336304 %",3.65%
CSCC[C@H](NC(=O)OC(C)(C)C)C(=O)N1CCC[C@H]1C(=O)Nc1cccc2ncccc12,inhibition,"PRVABC59, Concentration 49.5 uM, Number of replicates 2.0, Standard deviation 3.7582844678787546 %",-1.14%
same,inhibition,"PRVABC59, Concentration 99.01 uM, Number of replicates 2.0, Standard deviation 4.1601644464989835 %",-0.944%
same,inhibition,"PRVABC59, Concentration 198.0 uM, Number of replicates 2.0, Standard deviation 0.9895537178949099 %",-3.24%
O=C(N[C@H]1Cc2ccc(Br)cc2C1)c1cc(Cl)ccc1NS(=O)(=O)c1ccc(Oc2ccccc2Cl)cc1,inhibition,[2],18.4%

# — ChEMBL document CHEMBL5606458, “ASAP - ZIKV NS2B-NS3 protease fluorescence single point” (2024)
